The campaign covered roughly 150,000 compounds. About 540 (0.36%) showed an effect of 50% or more. The list shows a part of the results.

For this test, the system named is Plasmodium falciparum. Kind of test: Primary screen in NF54 nanoGlo assay, in single point, at 2uM, 72h; a lower Z score goes with more inhibition. Format: functional, Erythrocyte. As to conditions: timepoint 72 hour.
With `CN1CCC(=O)Nc2cc(C(=O)N3C[C@@H]4CCCCN4c4ccccc43)ccc21`, the “% Inhibition” value is -18% and the Z score was 2.56.
The like results for `CN(C[C@H]1CC1(C)C)C(=O)c1cc(-c2cccc(O)c2)on1` were, in that order, -20% and 2.47.
In the case of `CC1CN(C(=O)Nc2cc(F)cc(F)c2)CC2(CCCOC2)O1` (stereo not drawn), the “% Inhibition” value was -20% and the Z score worked out at 2.58.
The like results for `O=C(N[C@H]1CCC[C@@H]1O)c1c(Cl)cccc1Cl` were, in that order, -3% and 0.35.
For `O=C(Cc1ccc(-c2ccccc2)cc1)N(Cc1ccccc1)C1CC1`, in that order: -13% and 1.25.
On to `Cc1ccc(NS(=O)(=O)N(C)C)c(Cl)c1`, for which the “% Inhibition” value is 0% and the Z score is recorded as -0.07.
The like results for `Cc1cccc(NC(=O)CC2CC3CCC2C3)c1` (stereo not drawn) were, in that order, 4% and -0.58.
The like results for `O=C(CC1C=CCC1)N1CCOC(CF)C1` (stereo not drawn) were, in that order, 6% and -0.73.
Turning to `COc1ccc(C2=NN=C(C)[C@@H]2CC(=O)Nc2ccc(-n3cnnn3)cc2)cc1`, the “% Inhibition” value was -15% and the Z score is recorded as 1.83.
The like results for `O=C(NCCNc1cccc(Br)c1)c1ccncc1` were, in that order, -8% and 0.8.
The like results for `COc1ccc(C(=O)N2CCCN(Cc3ccsc3)CC2)cc1` were, in that order, 5% and -0.67.
For `COc1cc([C@H]2CC(=O)Nc3c2c(C)nn3-c2ncccn2)ccc1O`, in that order: 31% and -3.54.
In the case of `CNC(=O)Cc1noc(CNC(=O)OC(C)(C)C)n1`, the “% Inhibition” value is on record as -2% and the Z score is 0.29.
For `CC[C@H](C)N=C(N)NCC1CCN(C(C)=O)CC1`, in that order: -8% and 1.31.
Consider `O=C1C[C@H](c2nc(-c3cccc(Cl)c3)c[nH]2)CN1C1CC1`, for which the “% Inhibition” value worked out at 1% and the Z score was -0.24.
`CC(=O)Nc1ccc(C(=O)N2C3C=CCC2CC3)cc1` (stereo not drawn): the “% Inhibition” value amounted to 2% and the Z score is given as -0.26.
The like results for `O=C(NCCc1ncc[nH]1)N1CC[C@@](O)(c2ccccc2)[C@H]2CCCC[C@H]21` were, in that order, -16% and 1.73.
For `Cc1nc(C#N)c(C#N)n1Cc1ncnn1CC(C)C`, the “% Inhibition” value is -15% and the Z score is 1.3.
The like results for `COc1ccc(CNC(=O)c2ccc3nc(-c4ccc(OC)c(OC)c4)c(-c4ccc(OC)c(OC)c4)nc3c2)cc1` were, in that order, 33% and -3.97.
For `C[C@@H](CN1CC2(CCN(CCC(=O)N(C)C)CC2)OC1=O)c1ccccc1`, in that order: 6% and -0.88.
For `CCOc1ccc(N(CC)S(=O)(=O)N2CCC[C@H](C(=O)Nc3ccc(C)c(F)c3)C2)cc1`, in that order: 15% and -1.41.
Regarding `CC(=O)c1ccc(N2CCOCC2)c(-c2ccc(C(=O)N3CCCC3)cc2)c1`, the “% Inhibition” value is reported as -12% and the Z score turned out to be 2.4.
For `CC(C)c1ccc(-c2cccc(C(=O)NCCCN3CCNC(=O)C3)c2)nn1`, in that order: -23% and 3.94.
For `Cc1nnc(C(=O)N(CC2CC2)C(C)C)s1`, in that order: -13% and 1.88.
On to `CC(=O)Nc1ccc(Nc2cc(C)nc(N3CCCCC3)n2)cc1`, for which the “% Inhibition” value is -9% and the Z score amounted to 0.92.
The like results for `Cc1cnc(NCCN2CCCCCC2)nc1N(C)C` were, in that order, -15% and 1.43.
For `Cn1cccc1[C@@H](O)CNC(=O)C(=O)Nc1ccc(C(F)(F)F)cc1`, in that order: -11% and 1.87.
The like results for `C[C@H](NC(=O)CCc1ccccc1)c1nc(-c2ccncc2)cs1` were, in that order, -5% and 0.57.
Consider `O=C(O)C(CC1CC1)NC(=O)[C@H]1CC[C@H](c2ccccc2)C1` (stereo partly drawn), for which the “% Inhibition” value is listed as -40% and the Z score came out at 4.69.
The like results for `COc1ccc(CCc2nnc(NC(=O)Cc3c(F)cccc3Cl)s2)cc1` were, in that order, 1% and -0.15.
For `O=C(COCC(F)(F)F)N[C@@H]1C[C@H]2CC[C@@H]1O2`, in that order: -8% and 1.44.
Consider `Cc1nc(C)c([C@H](C)NC(=O)c2cccnc2)s1`, for which the “% Inhibition” value is given as 0% and the Z score stood at 0.03.
Consider `CC(C)c1noc([C@@H]2CCCN2CCCn2cnnn2)n1`, for which the “% Inhibition” value was -3% and the Z score is 0.37.
The like results for `Cc1ncn(C)c1C(=O)N[C@@H](C)c1nc(C2CC2)no1` were, in that order, -2% and 0.23.
Take `COc1ccccc1C(=O)N1CCN(Cc2nc[nH]n2)CC1`: the “% Inhibition” value worked out at 3% and the Z score was -0.52.
For `Cc1ccc(CNCc2cccnc2N2CCC[C@H](O)C2)o1`, in that order: -12% and 1.99.
For `CCc1nn(C)cc1CNC(=O)N1CCC(C)(CC(C)C)CC1`, in that order: -2% and 0.36.
The like results for `CCCc1ccc(OCCNS(=O)(=O)N2CCC(OC)CC2)cc1` were, in that order, -8% and 1.5.
For `Cc1nocc1Cc1noc(NCc2ccc3c(c2)OCO3)n1`, the “% Inhibition” value was 12% and the Z score was -1.61.
For `Cc1cc(N2C[C@@H]3CN(C(=O)C4CCCC4)C[C@]3(C(=O)O)C2)ccn1`, in that order: -13% and 1.17.
For `Cc1cnc(C)c(N2CCC(c3nc(C(C)C)no3)CC2)n1`, in that order: 3% and -0.35.
On to `Cc1nc2ccc(N3CC(C)(C)OC(C)(C)C3)nn2n1`, for which the “% Inhibition” value came to 2% and the Z score is listed as -0.28.
The like results for `O=C1CCC[C@@H](C(=O)N2CCCN(c3cccc(F)c3F)CC2)N1` were, in that order, -12% and 2.28.
For `Cc1cc(C(=O)NCCCNCc2cccnc2)c(Cl)cc1F`, in that order: 31% and -3.95.
As to `O=C(Cn1cnc2ccccc2c1=O)N1CCc2ncccc2C1`, the “% Inhibition” value is -3% and the Z score was 0.41.
The like results for `COC(=O)c1c(NC(C)=O)c2cc(N)cnc2n1CCC(C)C` were, in that order, -3% and 0.4.
For `O=c1[nH]nc(C(F)(F)F)n1C[C@H]1CCCO1`, in that order: -16% and 2.35.
The like results for `Cc1noc(C)c1C(=O)Nc1nc([C@@H]2CCCO2)n[nH]1` were, in that order, -1% and 0.08.
For the molecule `COCCC1(CNC(=O)C2C3CCCCC32)CCCCC1` (stereo not drawn), the “% Inhibition” value is -3% and the Z score is listed as 0.55.
Turning to `C[C@](O)(CNC(=O)CC=Cc1ccc(F)cc1)CN1CCOCC1`, the “% Inhibition” value was -11% and the Z score is reported as 1.07.
The like results for `O=C1CN([C@@H](C(=O)Nc2cc(Cl)cc(Cl)c2)c2ccccc2)c2ccccc2N1` were, in that order, -5% and 0.88.
For `Cc1ncsc1CN(Cc1ccccc1)C(=O)C1=NNC(=O)CC1`, in that order: 0% and -0.01.
For `O=C1COc2cccc(OCc3noc4c3CCCC4)c2N1`, in that order: -22% and 2.29.
For `CC(C)N1Cc2cc(C(=O)NCc3cccs3)sc2C1`, the “% Inhibition” value is listed as 1% and the Z score is -0.22.
For `C[C@@H](CCNCc1ccnn1-c1ccc(F)cc1)N(C)C`, in that order: -3% and 0.3.
The like results for `CC1CN(C(=O)CCC2CN(C(=O)OC(C)(C)C)C2)CC(C)O1` (stereo not drawn) were, in that order, 4% and -0.75.
The like results for `C[C@@H](CS(C)(=O)=O)NS(=O)(=O)c1cccc(Cl)c1` were, in that order, -10% and 1.41.
For the molecule `Cc1ccc(Cl)cc1N1CCN(c2cc(C3CC(O)C3)ncn2)CC1` (stereo not drawn), the “% Inhibition” value is reported as -8% and the Z score was found to be 0.98.
The like results for `COc1ccc2[nH]nc(C(=O)N3CCN(c4ccccc4Cl)C(=O)C3)c2c1` were, in that order, 5% and -0.81.
As to `CC1(C)[C@@H]2CCC13CS(=O)(=O)N(CCOc1ccc(C#N)cc1)[C@H]3C2`, the “% Inhibition” value was 22% and the Z score is on record as -2.82.
For the molecule `COc1cc(-c2cc(C(=O)Nc3c(C)n(C)n(-c4ccccc4)c3=O)c3ccccc3n2)cc(OC)c1OC`, the “% Inhibition” value came out at 6% and the Z score is on record as -0.77.
For `Cc1nnc(-c2cc(CCC(C)C)n(-c3cccc(C(=O)N[C@H]4CCCc5ccccc54)c3)n2)o1`, in that order: -4% and 0.69.
The like results for `CC1=C[C@@H](CNC(=O)C2CCCCC2)[C@H](C(C)C)C[C@H]1Cc1nc2cccc(C)c2[nH]1` were, in that order, 0% and -0.07.
The like results for `COCCN1C[C@@H](CN2CCc3c(Cl)cccc3C2)CC1=O` were, in that order, -2% and 0.3.
On to `CN(CCCN1CCCCCC1)C(=O)C1(Nc2ccccc2)CCCC1`, for which the “% Inhibition” value amounted to 8% and the Z score is -1.48.
For `Cc1nc(NC(=O)N2C[C@@H]3OC(=O)N(C4CCN(C(C)C)CC4)[C@@H]3C2)cs1`, in that order: -13% and 2.06.
Turning to `Cc1cc2ccccc2nc1N1CCN(Cc2cnn3cccnc23)CC1`, the “% Inhibition” value is 0% and the Z score is 0.09.
`CC(C)[C@H](Cn1nccn1)NC(=O)c1ccc(C(F)(F)F)cc1`: the “% Inhibition” value is -8% and the Z score is on record as 1.24.
For the molecule `Cc1ncc(C(=O)N2CCC3(CC2)Cc2cn(nn2)CCCOc2ccc(cc2)CCNC3=O)cn1`, the “% Inhibition” value is given as -1% and the Z score is listed as 0.15.
For `O=C(Nc1nncs1)c1ccc(N2CCC3(CCCCC3)C2)nc1`, in that order: -4% and 0.56.
Turning to `Cn1cccc1C(=O)N1CCN(C(=O)C2CCCCC2)[C@@H](C(=O)N[C@H]2CCCNC2=O)C1`, the “% Inhibition” value turned out to be 2% and the Z score is listed as -0.2.
For `CN1N=C(C(=O)Nc2cc(CCc3ccccc3)n[nH]2)CCC1=O`, the “% Inhibition” value is given as -3% and the Z score is listed as 0.42.
The like results for `CC(=O)N(C)C1CCN(C(=O)c2cc(NS(=O)(=O)c3cccs3)ccc2O)CC1` were, in that order, -7% and 0.68.
The like results for `COc1ccc(F)cc1CNS(=O)(=O)CC1C[C@@H]2COC[C@@H]2O1` (stereo partly drawn) were, in that order, -6% and 1.09.
The like results for `COC[C@H](C)c1nc(CCN2C(=O)c3ccccc3C2=O)cs1` were, in that order, -19% and 2.58.
As for `c1ccc(-c2noc(CCCN3CCC[C@H]3c3ncccn3)n2)cc1`, the “% Inhibition” value came to 12% and the Z score is -1.58.
For `CCc1cc(C(=O)Nc2cccc(F)c2)c2c(C)nn(Cc3ccccc3)c2n1`, in that order: 35% and -3.92.
Consider `NC(=O)c1cc(Cl)ccc1OCC(=O)NC1CCN(Cc2ccccc2)CC1`, for which the “% Inhibition” value is reported as -6% and the Z score amounted to 1.22.
For `O=C1NCCN1C(=O)NC[C@@H](c1ccco1)n1cccn1`, in that order: 7% and -0.9.
For `C[C@@H](C(=O)NC1CC1)n1nc(-c2ccccc2)c2cc(Cl)ccc21`, in that order: 2% and -0.31.
The like results for `CCOCCCNC(=O)c1c(-c2ccccc2)nnc2ccc(C)cc12` were, in that order, -4% and 0.46.
Take `Cc1ccc(Cl)cc1NC(=O)Cc1c(C)nc2nc(-c3cccnc3)nn2c1C`: the “% Inhibition” value was 10% and the Z score is -1.78.
The like results for `Cn1cc(NC(=O)C[C@H](n2cccn2)C(F)(F)F)c(C(N)=O)n1` were, in that order, 0% and -0.02.
The like results for `C=CCn1cc(-c2c(-c3ccccc3)ncn2CC(=O)Nc2ccccc2C)cn1` were, in that order, 1% and -0.06.

For orientation: % Inhibition means the drop in the measured response relative to a control, in per cent.

The record behind these values is ChEMBL document CHEMBL4888484, “Replenishing the malaria drug discovery pipeline: Screening and hit evaluation of the MMV Hit Generation Library 1 (HGL1) against asexual blood stage Plasmodium falciparum ,using a nano luciferase reporter read-out” (2022).
